Experimental findings from the RNAGym collection of RNA variant scans (doi:10.7554/elife.90254) are described below.

Read counts are not given, so values of variants with three or more changes are uncertain.

First the molecules themselves.
B1: LINE1-full (parent)
chain: UACGUAGGUGGUUUUCCCCUGAUAGUGCUAAGGGGGCCUGGAAGUUUGGACUGGGCAGAGCUCAACACAGCGUGGCAAAGUGGCUGUGGCUAGACUGCCUCUCUGGAUUCCUCGUCACUCAGCAGGGCAUCUCUGAGAGAAAUGCC

The variants in the series derive from B1. Briefly: self-cleavage, relative activity (ratio to wild type); higher = more cleavage; in vitro, sequencing; the parent is a self-cleaving ribozyme.
Consider U13C U47C G72A U73A A79U A92G, for which the self-cleavage turned out to be 0.28.
Turning to A43G A77U U91C U108A A129G U134A, the self-cleavage turned out to be 0.
Regarding A42G A67G A142G, the self-cleavage was found to be 0.63.
The figure for A79U C84A U130C is 0.06.
For the variant C3U U26A A140G, the self-cleavage worked out at 0.89.
With U12C U13C U20C, the self-cleavage amounted to 0.84.
For the variant U73G U115A A140G C146U, the self-cleavage was found to be 1.49.
Regarding U13A G21A A124U A129U, the self-cleavage came out at 1.65.
Take U13C C28A A42U A79G U81A: the self-cleavage came to 0.84.
On to C38A U85A U104C, for which the self-cleavage was determined as 0.1.
As for U9C U13A U26C U47C G54A U85C, the self-cleavage turned out to be 0.06.
G7A A59G U109A A138G: the self-cleavage stood at 0.03.
For the variant U62C A78U A79U, the self-cleavage stood at 0.08.
On to G36U A121G A140G, for which the self-cleavage is 2.3.
Then A57G A69G C99U A141G, with 0.06; and U13A A24G U47G U119C A136G, with 2.19; and U26A A50G C113U, with 0.83.
Turning to A2U U104A A140G, the self-cleavage amounted to 0.71.
U39C A77G U87C: the self-cleavage was 0.
For A22G G35C U52C, the self-cleavage is 0.97.
As to U13C C18A U108C A141G, the self-cleavage turned out to be 2.09.
For U39C A65G U73C, the self-cleavage was determined as 0.
For the variant A42G A94G U109A, the self-cleavage came to 0.41.
Take G41U U85G U130C: the self-cleavage worked out at 0.07.
The figure for U14C U15C U20G A43U is 0.89; for A43G U46A U112C it is 0.53; for U23C A42G U96C it is 0.45.
Consider U20C U26G U96A, for which the self-cleavage is 0.28.
Then U9C G82A A94U G97A A136G A142G, with 0; and U9C U26C A50G G75A U96A, with 0.09; and C28G U45C A121U, with 1.02.
The figure for A57U A107G U143C is 0.1; for G55U U96C U119A it is 0.
On to U12C U91C U109A A138U, for which the self-cleavage was 1.29.
For G4A U5C U73C C84G A107G, the self-cleavage was 0.38.
As for U20C A43G C63U U104A, the self-cleavage came out at 0.28.
With A64U U73C U115A, the self-cleavage amounted to 0.48.
U14A U46C C68U U87C: the self-cleavage stood at 0.
Consider U46C U91C A140G, for which the self-cleavage was 1.33.
As for G8A A78G U109C A121U, the self-cleavage was determined as 0.97.
With U73A U104A U130A, the self-cleavage was determined as 0.76.
Regarding U26A A136G A141G, the self-cleavage amounted to 0.
Regarding A24G A78G U102C A141G, the self-cleavage was 1.95.
For the variant A22G U29C U115A A142G, the self-cleavage was determined as 1.1.
Consider U5C U15G A94G A138G, for which the self-cleavage turned out to be 1.31.
For G8A U13C G55C A69G A77G U130C, the self-cleavage amounted to 0.
Then A22G A43G A67G C76U U96C, with 0; and U15C A64C U73A, with 0.53; and A65U A67U U143C, with 0.07.
The figure for C19U A31U U47C A138G is 0.95; for U26C G35A A107G it is 1.54.
Take A78G U87C A92U U143A: the self-cleavage worked out at 0.45.
Regarding U14C G21A U102C A124G U130C, the self-cleavage is 1.15.
In the case of A77G U109A A117U, the self-cleavage is 2.6.
Take U47A A117U A136U: the self-cleavage was determined as 1.09.
Take U85A A117G U132A U143A: the self-cleavage was 0.88.
Then G8A C37G A77U U119C, with 1.53; and A50G U102C U132A, with 0.5.
With A30G C95U U115A, the self-cleavage worked out at 0.14.
Consider U13C U45C G49U, for which the self-cleavage amounted to 0.84.
Regarding A43G A67G C90U, the self-cleavage turned out to be 0.
As for U13C A50U G54A A79U U100A C145G, the self-cleavage is 0.11.
Take U62C G72A A79G: the self-cleavage worked out at 0.02.
In the case of U13A A57G A79U, the self-cleavage was 1.25.
On to U47A A64C C71G A138C, for which the self-cleavage is 0.08.
With U14G U45A G105A, the self-cleavage worked out at 0.75.
On to U9A U45C A136U, for which the self-cleavage was found to be 0.
For A50G A121C U134C, the self-cleavage came out at 1.72.
With G53C G74A A79G A94G A140G U143A, the self-cleavage is 0.07.
Take U1A U5C U102C G114A: the self-cleavage worked out at 1.11.
Then A2G U12A A138U, with 1.26; and A22G A94U U132C, with 0.41; and A67G U96C G97A A140G, with 0.03.
On to A31G U104C A129U, for which the self-cleavage came to 1.36.
The figure for A50U U81A U87A is 0.06.
In the case of U45C U85A A138G, the self-cleavage amounted to 0.
For A22G U47A U108C A121U, the self-cleavage came to 1.53.
Regarding U52A C76U A136U, the self-cleavage amounted to 1.81.
For the variant A43U A67G A141G, the self-cleavage was 0.64.
Regarding U14C G48A U91C A92G, the self-cleavage worked out at 0.32.
The figure for C19U A31U U100C A121U is 0.35; for U15C U109A A117G it is 1.97.
For the variant A78G A92G U143C, the self-cleavage came to 0.22.
For A24G U46C U62C A77G A107G, the self-cleavage came out at 0.
For G33A A50G G72C A78G C95A, the self-cleavage was 0.01.
Then U12C U39A A43U A78G U119C, with 1.07.
Then A67G U73C A124G, with 0.57; and U5C U29C G144A C146U, with 0.53.
Take U9C U15C A78G A94G C116G: the self-cleavage came to 0.29.
The figure for U12C A64G A77U A121G is 0.63.
Regarding U15C U20A A107G, the self-cleavage amounted to 0.95.
In the case of A43G A57G A79U A140G, the self-cleavage is 1.04.
On to U46C U73C U91C G137U, for which the self-cleavage came to 1.67.
Consider U45C A129G U143C, for which the self-cleavage was found to be 2.81.
Then G44A C71U G127U, with 1.03; and U13C G33A A67G U134C, with 0.35.
The figure for U26C U29C A140U is 0; for A43G G88A A129U it is 0.03; for A22G U96G A138G C146U it is 0.
Then U62C A67U A78G, with 0.13; and U12G U91C A136G, with 0.
As to U23C G75A U102A, the self-cleavage stood at 0.
For the variant U5A U73C U96A C110U U130C, the self-cleavage worked out at 0.1.
As for A64U U85C A138G A141G, the self-cleavage stood at 0.02.
On to U12C G44A U52A G72A A138G, for which the self-cleavage turned out to be 1.82.
With U23C U29C A124G, the self-cleavage was 2.16.
For the variant U26A A79G C84A, the self-cleavage was 0.08.
Then U26A U39C A142G, with 0.74; and U9C U13A A57G, with 0.
Consider U15A U29C U91A, for which the self-cleavage is 1.21.
A22U A77U G125U A129U: the self-cleavage was 0.8.
For A77G A79G U87C A142G, the self-cleavage came out at 0.42.
With A24U A50G U115C, the self-cleavage stood at 1.53.
As for C38U U91C U96C U102C G127A, the self-cleavage was 0.09.
In the case of U13A A57C U73A G86U G127U A136G A138G, the self-cleavage was found to be 0.01.
Then A57G G75A C128U, with 0.6.
The figure for U23A G33A U47C U87C is 0.35; for U12C A42U U47G U62C U85C U91C it is 0; for A50G U85C U143A it is 0.
With U12C A42G C99G, the self-cleavage was 0.37.
U13C U46C A69G G72A A78U: the self-cleavage is 0.91.
As to A22G C38A U119C A124G, the self-cleavage was found to be 1.
Then A69G U119A A138U A141G, with 0.98; and U15A C37U U87C A94G U134C, with 0.09; and U14C U81A C99U A124U C133U A141G, with 0.85.
On to C63A U100A A124G, for which the self-cleavage is 0.08.
For C37U U46C A59G A94G, the self-cleavage came to 0.06.
Turning to U14A C19U U47C, the self-cleavage was 0.
On to A59G U81A U115C, for which the self-cleavage was 0.15.
As to A65G A140G C146A, the self-cleavage stood at 0.
Turning to C61A G74A U85C, the self-cleavage is 0.05.
Regarding A59U U73A A77U U87A U119A U130C, the self-cleavage was 0.05.
A2G U12C U104A A142G: the self-cleavage is 0.99.
Take A43G C61A U85C A129G: the self-cleavage is 0.03.
With U26C A77G G97A U109C, the self-cleavage is 0.09.
Then A65U C98G C146U, with 0.03; and U52A G60A U115G A136U A140G, with 0.04; and G32A U47C U130C, with 1.67.
On to U91A G97A A117G U119A, for which the self-cleavage worked out at 0.04.
As to A42U A124U A140G, the self-cleavage worked out at 0.92.
Take U15C A43U A94U G122U A141G: the self-cleavage came to 0.13.
For U14C A50U C99U U104C, the self-cleavage worked out at 0.08.
For the variant C71A A77G A92U U108C U143A, the self-cleavage came to 0.6.
Consider G8A U14C G27A A42C C63A A65U U100G U119A, for which the self-cleavage came out at 0.19.
Regarding G55A U85C U143C, the self-cleavage worked out at 0.02.
Regarding U39A U62C U85C, the self-cleavage is 0.
Turning to A77G U85C U87A G106A U119C, the self-cleavage amounted to 0.1.
As for G55A U102A A117G, the self-cleavage is 1.1.
With U1C U46C U104C, the self-cleavage worked out at 1.39.
As to U73C U104A U143A, the self-cleavage came out at 1.56.
For the variant U13C U52C U115A A138G, the self-cleavage amounted to 1.7.
In the case of U26C C113U U115C, the self-cleavage came out at 1.5.
Consider G10A U26A A50C C68A U112C, for which the self-cleavage was 0.05.
Then C76G A79G G86A, with 0.21; and U12A U47C G137U, with 2; and A42U A69U A94G, with 0.
Turning to U26A G54A A78G, the self-cleavage was 0.17.
As for A69U G74A C76U U143C, the self-cleavage was determined as 0.05.
Consider U13C U15C C51U G93A U102C U109A U130C, for which the self-cleavage came to 0.03.
The figure for A30G U52A U112A is 1.02; for A2G C99U A117G A142G it is 1.36.
As to A43G U102A A136U, the self-cleavage turned out to be 1.31.
Take U20C A59U U100G U112A U143A: the self-cleavage came to 1.19.
With G36U U45C U109C, the self-cleavage came to 1.86.
On to U20A U26A U62C, for which the self-cleavage is 0.12.
As to A121G A141G G144A, the self-cleavage came out at 2.15.
For U20C A42G G72A A94G U96C, the self-cleavage stood at 0.
